Results are given in words; binding and its absence hold for the method and conditions named. Binding seen in cells or lysates may run through a third protein. Some entries that bind do so weakly or less than the wild type. For some of these results: Sequences can lack the tags named with a protein.
Experiments:
[1] = biological target: FLAG-tagged MARK1 (hMARK1 TV2) (human) (UniProt Q9P0L2); test: co-IP; FLAG-tagged kinase overexpressed in HEK293T, 1 h 1 μM Carfilzomib (in some panels DMSO or 10 μM Fsk for 1 h); lysis in 50 mM Tris, 150 mM NaCl, 10% glycerol, 1% Igepal, pH 8.0; anti-FLAG M2 magnetic beads, 3xFLAG peptide elution; endogenous CLASP1 and 14-3-3 detected by Western blot
[2] = biological target: FLAG-tagged MARK2 (hMARK2 TV4, MAP/microtubule affinity-regulating kinase 2, 1–788) (human) (UniProt Q7KZI7); test: as above
[3] = biological target: FLAG-tagged MARK2 2–307 (N-terminal kinase domain of MARK2) (human) (UniProt Q7KZI7); test: as above
[4] = biological target: FLAG-tagged MARK2 307–788 (C-terminus of MARK2, starting at the UBA domain) (human) (UniProt Q7KZI7); test: as above
[5] = biological target: FLAG-tagged MARK3 (hMARK3 TV3) (human) (UniProt P27448); test: as above
[6] = biological target: T1, FLAG-tagged CLASP1 (H. sapiens CLASP1 isoform 2) (human) (UniProt Q7Z460); test: co-IP; FLAG-tagged CLASP1 coexpressed with HA-tagged kinases in HEK293T; anti-FLAG M2 magnetic beads, 3xFLAG peptide elution; Western blot
T1 sequence: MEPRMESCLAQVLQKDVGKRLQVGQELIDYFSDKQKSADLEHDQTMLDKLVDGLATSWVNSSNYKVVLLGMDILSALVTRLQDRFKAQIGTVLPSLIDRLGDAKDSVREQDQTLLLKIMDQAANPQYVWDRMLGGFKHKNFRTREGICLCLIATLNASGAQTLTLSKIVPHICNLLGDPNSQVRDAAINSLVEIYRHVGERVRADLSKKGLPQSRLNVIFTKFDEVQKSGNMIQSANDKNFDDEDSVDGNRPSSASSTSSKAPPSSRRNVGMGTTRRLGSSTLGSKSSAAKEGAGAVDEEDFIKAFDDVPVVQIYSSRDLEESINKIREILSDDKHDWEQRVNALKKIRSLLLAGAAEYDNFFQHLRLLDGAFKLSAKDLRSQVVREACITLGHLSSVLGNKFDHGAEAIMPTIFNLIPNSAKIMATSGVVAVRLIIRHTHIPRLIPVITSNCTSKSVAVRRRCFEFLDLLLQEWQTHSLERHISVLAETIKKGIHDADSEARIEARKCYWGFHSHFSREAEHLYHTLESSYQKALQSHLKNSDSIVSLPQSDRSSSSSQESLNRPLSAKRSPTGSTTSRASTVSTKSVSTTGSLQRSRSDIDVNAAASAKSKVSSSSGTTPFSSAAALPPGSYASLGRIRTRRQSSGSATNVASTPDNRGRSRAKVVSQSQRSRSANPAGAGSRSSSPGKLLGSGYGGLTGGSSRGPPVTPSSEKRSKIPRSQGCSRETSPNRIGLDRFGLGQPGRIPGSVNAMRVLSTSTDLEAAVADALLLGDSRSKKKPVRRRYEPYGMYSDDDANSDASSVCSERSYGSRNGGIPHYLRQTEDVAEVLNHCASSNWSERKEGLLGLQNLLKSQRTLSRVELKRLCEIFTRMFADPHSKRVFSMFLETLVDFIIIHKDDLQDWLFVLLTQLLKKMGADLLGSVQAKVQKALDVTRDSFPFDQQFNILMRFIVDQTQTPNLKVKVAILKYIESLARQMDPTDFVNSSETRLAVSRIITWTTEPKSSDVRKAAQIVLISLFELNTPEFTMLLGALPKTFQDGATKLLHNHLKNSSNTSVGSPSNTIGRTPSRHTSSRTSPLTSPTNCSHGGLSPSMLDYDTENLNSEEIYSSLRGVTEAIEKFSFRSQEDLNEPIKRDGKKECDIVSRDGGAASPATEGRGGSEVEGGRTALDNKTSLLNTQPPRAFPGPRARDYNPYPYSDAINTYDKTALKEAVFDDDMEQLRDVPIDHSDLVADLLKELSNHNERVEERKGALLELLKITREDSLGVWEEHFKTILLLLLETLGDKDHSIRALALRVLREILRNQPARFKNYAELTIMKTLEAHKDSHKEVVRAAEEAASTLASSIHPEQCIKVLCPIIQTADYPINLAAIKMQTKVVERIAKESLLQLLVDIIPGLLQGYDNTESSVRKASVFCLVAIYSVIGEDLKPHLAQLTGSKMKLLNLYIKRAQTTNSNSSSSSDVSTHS

By UniProt entry, the sequences of proteins in these tests, tags left out. Where a name states a change or a piece, a line headed by the entry shows the natural chain unless it says otherwise. Chains listed by the source or under a name are the forms on record and can include a tag or linker. Residues count along the entry.
UniProt Q9P0L2: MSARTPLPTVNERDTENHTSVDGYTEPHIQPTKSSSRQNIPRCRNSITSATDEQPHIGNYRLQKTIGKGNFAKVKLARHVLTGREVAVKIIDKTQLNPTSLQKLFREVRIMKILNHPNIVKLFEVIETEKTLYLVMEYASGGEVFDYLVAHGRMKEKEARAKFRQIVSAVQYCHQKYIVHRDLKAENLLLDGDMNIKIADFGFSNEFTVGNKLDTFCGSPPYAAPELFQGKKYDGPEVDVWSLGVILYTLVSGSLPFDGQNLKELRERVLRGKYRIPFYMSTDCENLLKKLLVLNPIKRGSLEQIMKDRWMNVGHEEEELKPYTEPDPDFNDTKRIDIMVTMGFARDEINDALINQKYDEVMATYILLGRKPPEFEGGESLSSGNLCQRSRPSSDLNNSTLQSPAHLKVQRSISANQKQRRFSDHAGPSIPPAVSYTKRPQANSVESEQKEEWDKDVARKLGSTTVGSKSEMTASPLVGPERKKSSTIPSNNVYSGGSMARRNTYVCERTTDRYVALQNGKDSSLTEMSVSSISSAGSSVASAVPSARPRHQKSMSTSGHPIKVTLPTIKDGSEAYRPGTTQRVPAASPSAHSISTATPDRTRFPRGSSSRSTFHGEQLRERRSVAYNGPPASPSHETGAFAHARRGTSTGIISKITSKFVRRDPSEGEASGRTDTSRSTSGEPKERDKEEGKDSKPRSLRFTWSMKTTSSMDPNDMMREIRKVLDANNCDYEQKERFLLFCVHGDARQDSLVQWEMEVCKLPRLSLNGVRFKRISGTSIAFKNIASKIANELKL
UniProt Q7KZI7: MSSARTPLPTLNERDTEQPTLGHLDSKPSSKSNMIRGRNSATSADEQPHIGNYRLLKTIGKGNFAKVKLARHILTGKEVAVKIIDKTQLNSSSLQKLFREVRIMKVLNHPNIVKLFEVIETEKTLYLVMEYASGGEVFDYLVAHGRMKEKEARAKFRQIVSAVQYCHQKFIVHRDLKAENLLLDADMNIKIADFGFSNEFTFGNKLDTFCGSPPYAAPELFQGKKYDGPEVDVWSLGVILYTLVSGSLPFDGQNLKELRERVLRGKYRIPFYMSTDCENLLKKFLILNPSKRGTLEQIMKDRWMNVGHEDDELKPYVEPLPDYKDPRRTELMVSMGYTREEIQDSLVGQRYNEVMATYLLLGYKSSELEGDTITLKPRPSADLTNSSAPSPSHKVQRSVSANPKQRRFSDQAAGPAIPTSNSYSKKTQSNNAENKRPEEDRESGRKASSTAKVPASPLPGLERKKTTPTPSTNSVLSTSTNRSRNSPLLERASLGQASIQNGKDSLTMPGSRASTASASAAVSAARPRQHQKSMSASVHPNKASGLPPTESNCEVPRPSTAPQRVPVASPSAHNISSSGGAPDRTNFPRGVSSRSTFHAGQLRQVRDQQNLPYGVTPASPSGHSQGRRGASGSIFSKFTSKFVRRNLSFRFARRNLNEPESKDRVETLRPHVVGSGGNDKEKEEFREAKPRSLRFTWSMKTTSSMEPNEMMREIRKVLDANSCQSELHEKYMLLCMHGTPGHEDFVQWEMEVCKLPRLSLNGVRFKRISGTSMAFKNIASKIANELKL
FLAG-tagged MARK2 2–307 (N-terminal kinase domain of MARK2): residues 2-307 of Q7KZI7
FLAG-tagged MARK2 307–788 (C-terminus of MARK2, starting at the UBA domain): residues 307-788 of Q7KZI7
HA-tagged MARK3 (hMARK3 TV3) (P27448-3, form named): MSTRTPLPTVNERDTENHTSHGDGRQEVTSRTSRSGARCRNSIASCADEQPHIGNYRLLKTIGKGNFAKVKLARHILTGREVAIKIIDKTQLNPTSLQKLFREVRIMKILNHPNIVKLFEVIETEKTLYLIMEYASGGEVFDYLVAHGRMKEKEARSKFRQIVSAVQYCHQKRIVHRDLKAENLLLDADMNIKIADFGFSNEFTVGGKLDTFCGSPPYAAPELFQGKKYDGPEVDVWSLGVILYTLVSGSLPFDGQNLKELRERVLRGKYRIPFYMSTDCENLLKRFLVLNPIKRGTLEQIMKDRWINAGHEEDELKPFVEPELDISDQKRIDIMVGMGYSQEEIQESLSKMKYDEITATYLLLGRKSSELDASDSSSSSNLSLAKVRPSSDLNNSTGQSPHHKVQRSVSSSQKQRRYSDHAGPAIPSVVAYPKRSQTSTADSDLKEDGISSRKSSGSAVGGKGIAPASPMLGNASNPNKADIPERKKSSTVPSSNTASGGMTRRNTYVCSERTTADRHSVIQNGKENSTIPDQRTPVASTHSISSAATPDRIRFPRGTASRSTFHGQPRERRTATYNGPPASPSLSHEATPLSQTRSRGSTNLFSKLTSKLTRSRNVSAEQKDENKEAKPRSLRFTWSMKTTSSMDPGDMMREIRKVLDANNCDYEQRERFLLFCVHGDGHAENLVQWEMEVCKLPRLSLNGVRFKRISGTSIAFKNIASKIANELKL

| binding [1] | binding [2] | binding [3] | binding [4] | binding [5] | binding [6] | Substance |
| --- | --- | --- | --- | --- | --- | --- |
| binds | binds | no binding | binds | binds |  | CLIP-associating protein 1 (CLASP1), endogenous (from UniProt Q7Z460 1-1538) |
|  |  |  |  |  | binds | HA-tagged MARK1 (hMARK1 TV2) (from UniProt Q9P0L2-1 1-795) (enzyme) |
|  |  |  |  |  | binds | HA-tagged MARK3 (hMARK3 TV3) (from UniProt P27448-3 1-729) (enzyme) |

From article PMC6890249
